The structures appear in SMILES notation. This is one part of the list. Most values come without repeats; read them as rough.
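Also: cells treated in 1,536-well plates, then fixed and DAPI-stained, with nuclei counted from automated high-throughput microscope images.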

This assay deals with 501Mel. Nature of the assay: cell count relative to DMSO control; melanoma cells; higher = more viable cells. The following applies: library dose: standard library concentration; 72 h.
`Cc1ccc(NC(=O)c2cccc(N(C)C)c2)cc1NC(=O)c1ccc(O)cc1` + CC(C)CCN1c2nc(Nc3cc(F)c(O)c(F)c3)ncc2N(C)C(=O)C1C [BID1870] (first compound 10 µM, partner dose 1 µM) returned a cell count of 65.7%.

In turn, `CCCCCCCCc1ccc(CCC(N)(CO)CO)cc1` [fingolimod] + CCCCCCCCCCCC1=C(O)C(=O)C=C(O)C1=O [Embelin] (first compound 10 µM, partner dose 6 µM) registered a cell count of 0.937%.

Molecule `NC(=O)c1ccc(N(C(N)=O)c2c(F)cccc2F)nc1-c1ccc(F)cc1F` + COc1cc(N2CCC(N3CCN(C)CC3)CC2)ccc1Nc1ncc(Cl)c(Nc2ccccc2S(=O)(=O)C(C)C)n1 [NVP-TAE684] (first compound 2 µM, partner dose 0.4 µM) showed a cell count of 78.4%.

In turn, `CC(C)(C)c1cnc(CSc2cnc(NC(=O)C3CCNCC3)s2)o1` + COc1cc(N2CCC(N3CCN(C)CC3)CC2)ccc1Nc1ncc(Cl)c(Nc2ccccc2S(=O)(=O)C(C)C)n1 [NVP-TAE684] (first compound 0.05 µM, partner dose 0.4 µM) gave a cell count of 67.5%.

`CCCCCCCCc1ccc(CCC(N)(CO)CO)cc1` [fingolimod] + O=C(O)C(=O)Nc1sc2c(c1C(=O)O)CCNC2 [TCS401] (first compound 10 µM, partner dose 8.33333 µM) showed a cell count of 2.57%.

The molecule `COc1cc2c(Oc3ccc4[nH]c(C)cc4c3F)ncnc2cc1OCCCN1CCCC1` [cediranib] + Cc1cc([N+](=O)[O-])ccc1NS(=O)(=O)c1cc(Cl)ccc1Cl [FH535] (first compound 2 µM, partner dose 5 µM) displayed a cell count of 67.3%.
